{"source": "paper PMC5700166", "note": "Only a part is listed here, and it is no random draw. The list includes weakly bound sequences.", "data": [{"target": "T1, GST-Co-NF-kB (UniProt F1ARL5)", "T1 sequence": "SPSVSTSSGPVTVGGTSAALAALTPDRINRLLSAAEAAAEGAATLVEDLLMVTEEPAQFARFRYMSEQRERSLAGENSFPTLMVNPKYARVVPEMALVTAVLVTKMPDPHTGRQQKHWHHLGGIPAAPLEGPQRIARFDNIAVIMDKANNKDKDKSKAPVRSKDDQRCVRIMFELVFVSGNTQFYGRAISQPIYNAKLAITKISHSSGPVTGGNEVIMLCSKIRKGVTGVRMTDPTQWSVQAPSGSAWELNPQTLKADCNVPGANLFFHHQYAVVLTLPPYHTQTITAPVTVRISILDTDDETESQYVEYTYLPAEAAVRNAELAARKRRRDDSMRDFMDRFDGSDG", "assay": "protein-binding microarray (PBM)", "settings": "PBM: ~300 nM protein, 6 mM HEPES pH 7.8, 80 mM KCl, 0.5 mM EDTA, 0.5 mM EGTA, 6% glycerol, 35 ng/ul poly-dIdC, 1% milk, 1 h, room temperature; Ap Aiptasia and Nv Nematostella (sea anemones) / Co Capsaspora / Aq Amphimedon (sponge) / Dm Drosophila / Hu human; RHD is the Rel homology domain; high values mean tight binding; most listed sequences are background and not binding sites; double strand, one strand shown", "units": {"binding signal": "z-score"}, "values": [{"sequence": "CCGATTAACATCAATCAGTATGATGATGTTAATCGGGTCTTGATTCGCTTGACGCTGCTG", "binding signal": -0.0937}, {"sequence": "CCGATTAACATCAGAGCGGGTTTTGATGTTAATCGGGTCTTGATTCGCTTGACGCTGCTG", "binding signal": -0.24}, {"sequence": "CCGATTAACATCAATGCGGTGCGTGATGTTAATCGGGTCTTGATTCGCTTGACGCTGCTG", "binding signal": -0.699}, {"sequence": "CCGATTAACATCATCGATGGCCTTGATGTTAATCGGGTCTTGATTCGCTTGACGCTGCTG", "binding signal": -1.01}, {"sequence": "CCGATTAACATCAAGCACAGAGCTGATGTTAATCGGGTCTTGATTCGCTTGACGCTGCTG", "binding signal": -1.14}, {"sequence": "CCGATTAACATCAAGAAATTCCATGATGTTAATCGGGTCTTGATTCGCTTGACGCTGCTG", "binding signal": 0.0582}, {"sequence": "CCGATTAACATCAAAGAAGTTGGTGATGTTAATCGGGTCTTGATTCGCTTGACGCTGCTG", "binding signal": 0.616}, {"sequence": "CCGATTAACATCATGTAACGGAGTGATGTTAATCGGGTCTTGATTCGCTTGACGCTGCTG", "binding signal": 0.0955}, {"sequence": "CCGATTAACATCAGTGCGCGTGTTGATGTTAATCGGGTCTTGATTCGCTTGACGCTGCTG", "binding signal": -0.207}, {"sequence": "CCGATTAACATCACTAATCTTTTTGATGTTAATCGGGTCTTGATTCGCTTGACGCTGCTG", "binding signal": -0.44}, {"sequence": "CCGATTAACATCACAACGTCTTATGATGTTAATCGGGTCTTGATTCGCTTGACGCTGCTG", "binding signal": -0.101}, {"sequence": "CCGATTAACATCAGGCAAAACCCTGATGTTAATCGGGTCTTGATTCGCTTGACGCTGCTG", "binding signal": -0.66}, {"sequence": "CCGATTAACATCAAATAGGCTCATGATGTTAATCGGGTCTTGATTCGCTTGACGCTGCTG", "binding signal": -0.437}, {"sequence": "CCGATTAACATCAAGTCACGGGTTGATGTTAATCGGGTCTTGATTCGCTTGACGCTGCTG", "binding signal": -0.538}, {"sequence": "CCGATTAACATCAACTAAATTCCTGATGTTAATCGGGTCTTGATTCGCTTGACGCTGCTG", "binding signal": -0.172}, {"sequence": "CCGATTAACATCACTGGGATTGATGATGTTAATCGGGTCTTGATTCGCTTGACGCTGCTG", "binding signal": 0.94}, {"sequence": "CCGATTAACATCAACCGAACTTTTGATGTTAATCGGGTCTTGATTCGCTTGACGCTGCTG", "binding signal": 0.396}, {"sequence": "CCGATTAACATCACGCCGACTTTTGATGTTAATCGGGTCTTGATTCGCTTGACGCTGCTG", "binding signal": -0.184}, {"sequence": "CCGATTAACATCAGGGTTCAGGCTGATGTTAATCGGGTCTTGATTCGCTTGACGCTGCTG", "binding signal": -0.633}, {"sequence": "CCGATTAACATCACAATGTGTGATGATGTTAATCGGGTCTTGATTCGCTTGACGCTGCTG", "binding signal": -0.801}, {"sequence": "CCGATTAACATCATATGGGATCGTGATGTTAATCGGGTCTTGATTCGCTTGACGCTGCTG", "binding signal": 0.162}, {"sequence": "CCGATTAACATCAAGCGATCTCCTGATGTTAATCGGGTCTTGATTCGCTTGACGCTGCTG", "binding signal": -0.664}, {"sequence": "CCGATTAACATCAGGAATTTGCATGATGTTAATCGGGTCTTGATTCGCTTGACGCTGCTG", "binding signal": 0.422}, {"sequence": "CCGATTAACATCAAGCGAATGTATGATGTTAATCGGGTCTTGATTCGCTTGACGCTGCTG", "binding signal": -0.153}, {"sequence": "CCGATTAACATCAATTTCGCGTTTGATGTTAATCGGGTCTTGATTCGCTTGACGCTGCTG", "binding signal": -0.247}, {"sequence": "CCGATTAACATCAAACATGGGCTTGATGTTAATCGGGTCTTGATTCGCTTGACGCTGCTG", "binding signal": -0.274}, {"sequence": "CCGATTAACATCAGGAATTTCACTGATGTTAATCGGGTCTTGATTCGCTTGACGCTGCTG", "binding signal": 0.44}, {"sequence": "CCGATTAACATCAAGATGAACCATGATGTTAATCGGGTCTTGATTCGCTTGACGCTGCTG", "binding signal": -0.591}, {"sequence": "CCGATTAACATCAGCGCCAGAGATGATGTTAATCGGGTCTTGATTCGCTTGACGCTGCTG", "binding signal": -1.33}, {"sequence": "CCGATTAACATCAGGAATTTCAATGATGTTAATCGGGTCTTGATTCGCTTGACGCTGCTG", "binding signal": 0.109}, {"sequence": "CCGATTAACATCACGCTGCACGCTGATGTTAATCGGGTCTTGATTCGCTTGACGCTGCTG", "binding signal": -1.03}, {"sequence": "CCGATTAACATCACAGCGTGAGGTGATGTTAATCGGGTCTTGATTCGCTTGACGCTGCTG", "binding signal": -0.717}, {"sequence": "CCGATTAACATCAAAAAATCCCGTGATGTTAATCGGGTCTTGATTCGCTTGACGCTGCTG", "binding signal": 2.99}, {"sequence": "CCGATTAACATCAGGACACTCCCTGATGTTAATCGGGTCTTGATTCGCTTGACGCTGCTG", "binding signal": 0.296}, {"sequence": "CCGATTAACATCATTCTTTTAGATGATGTTAATCGGGTCTTGATTCGCTTGACGCTGCTG", "binding signal": -0.662}, {"sequence": "CCGATTAACATCATTGCTGAGAATGATGTTAATCGGGTCTTGATTCGCTTGACGCTGCTG", "binding signal": -0.125}, {"sequence": "CCGATTAACATCACGAGGTTGACTGATGTTAATCGGGTCTTGATTCGCTTGACGCTGCTG", "binding signal": -0.287}]}]}
